In PubChem BioAssay (NCATS):
The shares of active, inactive and inconclusive entries below differ from those in the screen. For part of these data: Potencies beside an inconclusive call are fits to weak or partial responses and may not hold up. The source made the active and inactive calls. Unless noted, the call rests on the fitted dose curve; in most records, active means well fitted curve in the direction sought with a large enough effect; inconclusive means small, poorly fitted or top-dose-only effect, or another doubt; inactive means no such curve, though single readings can be large; an effect the other way counts as inactive or inconclusive.

Tests used:
[1] = Primary qHTS for inhibitors of nuclear receptor binding SET domain protein 2 (NSD2) in an isogenic RCH-ACV NSD2 p.E1099K mutant (9B) (AID 1645876); settings: activity change, negative = viability loss: at 44.9 µM (top of the series) unless noted; further: potency means the concentration at half of the fitted maximal effect; nearly all actives have a fitted effect of over 70% in size
[2] = Primary qHTS for inhibitors of nuclear receptor binding SET domain protein 2 (NSD2) in an RCH-ACV wild type WT cells (2C) (AID 1645877); settings: activity change, negative = cell killing: at 44.9 µM (top of the series) unless noted; further: nearly all actives have a fitted effect of over 70% in size
[3] = Quantitative High-Throughput drug screen in 47 multiple myeloma cell lines against the NCATS MIPE library collection: FR4_PLB cell viability assay (AID 1918924; further: potency means the concentration at half of the fitted maximal effect; nearly all actives have a fitted effect of over 35% in size)
Outline: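 Luminescent ATP measurement with CellTiter-Glo gives viability, scaled between DMSO-only wells (100%) and media-only wells (0%). Cells, 500 per well, faced library compounds for 48 hours at 37C.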

[4] = Quantitative High-Throughput drug screen in 47 multiple myeloma cell lines against the NCATS MIPE library collection: Delta47_JCRB cell viability assay (AID 1918925; further: potency means the concentration at half of the fitted maximal effect; nearly all actives have a fitted effect of over 45% in size)
Outline: (§1)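 Inhibition of cell viability is measured here. Each line was plated at 500 cells per well, treated with MIPE 4.0 drugs, kept 48 hours at 37C, then assayed for ATP content by CellTiter-Glo luminescence.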

[5] = Quantitative High-Throughput drug screen in 47 multiple myeloma cell lines against the NCATS MIPE library collection: AMO1_DSMZ cell viability assay (AID 1918927; further: nearly all actives have a fitted effect of over 30% in size); settings: AMO1 myeloma cells viability, CellTiter-Glo ATP luminescence, 48 h; viability, % of DMSO: at 45.8 µM (top of the series)
Outline: as §1

[6] = Quantitative High-Throughput drug screen in 47 multiple myeloma cell lines against the NCATS MIPE library collection: ARP1_JJKsccF8 cell viability assay (AID 1918928; further: potency means the concentration at half of the fitted maximal effect; nearly all actives have a fitted effect of over 40% in size)
Outline: (§2)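 Luminescence from CellTiter-Glo, taken after 5 min at room temperature, reports cellular ATP as viability. Cells (500 per well) had been treated 48 h at 37 °C with MIPE 4.0 compounds, scaled between DMSO and medium-only controls.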

[7] = Quantitative High-Throughput drug screen in 47 multiple myeloma cell lines against the NCATS MIPE library collection: KMM1_JCRB cell viability assay (AID 1918960); further: nearly all actives have a fitted effect of over 30% in size
Outline: as §2

[8] = Quantitative High-Throughput drug screen in 47 multiple myeloma cell lines against the NCATS MIPE library collection: Karpas417_ECACC cell viability assay (AID 1918961); settings: Karpas417 myeloma viability, CellTiter-Glo ATP luminescence, 48 h; viability (% of DMSO): at 45.8 µM (top of the series); further: potency means the concentration at half of the fitted maximal effect
Outline: (§3)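 Steps: seed 500 cells per well; pin-transfer MIPE 4.0 library; incubate 48 h at 37C, 5% CO2, humidified; add CellTiter-Glo, 5 min room temperature; read luminescence.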

[9] = Quantitative High-Throughput drug screen in 47 multiple myeloma cell lines against the NCATS MIPE library collection: JIM1_ECACC cell viability assay (AID 1918964; further: potency means the concentration at half of the fitted maximal effect); settings: JIM1 myeloma viability, CellTiter-Glo ATP luminescence, 48 h; viability (% of DMSO): at 45.8 µM (top of the series)
Outline: as §1

[10] = Quantitative High-Throughput drug screen in 47 multiple myeloma cell lines against the NCATS MIPE library collection: INA6_PLB cell viability assay (AID 1918965; further: potency means the concentration at half of the fitted maximal effect; nearly all actives have a fitted effect of over 55% in size)
Outline: as §3

[11] = Quantitative High-Throughput drug screen in 47 multiple myeloma cell lines against the NCATS MIPE library collection: JJN3_DSMZ cell viability assay (AID 1918966; further: potency means the concentration at half of the fitted maximal effect; nearly all actives have a fitted effect of over 50% in size); settings: JJN3 myeloma cells viability, CellTiter-Glo ATP, 48 h; viability, % of DMSO: at 45.8 µM (top of the series)
Outline: as §1

[12] = Quantitative High-Throughput drug screen in 47 multiple myeloma cell lines against the NCATS MIPE library collection: H1112_PLB cell viability assay (AID 1918967; further: potency means the concentration at half of the fitted maximal effect; nearly all actives have a fitted effect of over 30% in size)
Outline: as §1

[13] = Quantitative High-Throughput drug screen in 47 multiple myeloma cell lines against the NCATS MIPE library collection: Karpas25_ECACC cell viability assay (AID 1918968; further: potency means the concentration at half of the fitted maximal effect; nearly all actives have a fitted effect of over 35% in size)
Outline: as §1

[14] = Quantitative High-Throughput drug screen in 47 multiple myeloma cell lines against the NCATS MIPE library collection: KMS27_JCRB cell viability assay (AID 1918970); further: potency means the concentration at half of the fitted maximal effect; nearly all actives have a fitted effect of over 30% in size
Outline: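 Myeloma cells (500 per well) were exposed to MIPE 4.0 compounds for 48 h at 37 °C, 5% CO2; viability was read as ATP luminescence with CellTiter-Glo, normalized to DMSO-only (100%) and media-only (0%) wells.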

[15] = Quantitative High-Throughput drug screen in 47 multiple myeloma cell lines against the NCATS MIPE library collection: KMS12PE_JCRB cell viability assay (AID 1918972)
Outline: as §3

[16] = Quantitative High-Throughput drug screen in 47 multiple myeloma cell lines against the NCATS MIPE library collection: KMS20_JCRB cell viability assay (AID 1918973); settings: CellTiter-Glo ATP, 48 h; viability (% of DMSO): at 45.8 µM (top of the series); further: potency means the concentration at half of the fitted maximal effect; nearly all actives have a fitted effect of over 45% in size
Outline: as §1

[17] = Quantitative High-Throughput drug screen in 47 multiple myeloma cell lines against the NCATS MIPE library collection: KMS21BM_JCRB cell viability assay (AID 1918974); further: potency means the concentration at half of the fitted maximal effect
Outline: as §1

[18] = Quantitative High-Throughput drug screen in 47 multiple myeloma cell lines against the NCATS MIPE library collection: MMM1_PLB cell viability assay (AID 1918976); further: potency means the concentration at half of the fitted maximal effect; nearly all actives have a fitted effect of over 35% in size
Outline: (§4)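 Inhibition of viability over 48 h was scored by ATP content (CellTiter-Glo) in 500-cell wells. Zero and full viability were defined by media-only and DMSO-only wells.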

[19] = Quantitative High-Throughput drug screen in 47 multiple myeloma cell lines against the NCATS MIPE library collection: MOLP8_DSMZ cell viability assay (AID 1918977); settings: MOLP8 myeloma viability, CellTiter-Glo ATP luminescence, 48 h; viability (% of control): at 45.8 µM (top of the series); further: potency means the concentration at half of the fitted maximal effect; nearly all actives have a fitted effect of over 45% in size
Outline: as §4

[20] = Quantitative High-Throughput drug screen in 47 multiple myeloma cell lines against the NCATS MIPE library collection: NCIH929_DSMZ cell viability assay (AID 1918978); further: potency means the concentration at half of the fitted maximal effect; nearly all actives have a fitted effect of over 35% in size
Outline: as §4

[21] = Quantitative High-Throughput drug screen in 47 multiple myeloma cell lines against the NCATS MIPE library collection: OCIMY1_PLB cell viability assay (AID 1918979); further: nearly all actives have a fitted effect of over 35% in size
Outline: as §4

[22] = Quantitative High-Throughput drug screen in 47 multiple myeloma cell lines against the NCATS MIPE library collection: MM1S_ATCC cell viability assay (AID 1918980); further: nearly all actives have a fitted effect of over 45% in size
Outline: as §4

[23] = Quantitative High-Throughput drug screen in 47 multiple myeloma cell lines against the NCATS MIPE library collection: MM1R_ATCC cell viability assay (AID 1918981)
Outline: as §4

[24] = Quantitative High-Throughput drug screen in 47 multiple myeloma cell lines against the NCATS MIPE library collection: LP1_DSMZ cell viability assay (AID 1918982)
Outline: as §4

[25] = Quantitative High-Throughput drug screen in 47 multiple myeloma cell lines against the NCATS MIPE library collection: L363_DSMZ cell viability assay (AID 1918984); settings: L363 myeloma viability, CellTiter-Glo ATP luminescence, 48 h; viability (% of control): at 45.8 µM (top of the series); further: nearly all actives have a fitted effect of over 40% in size
Outline: as §4

[26] = Quantitative High-Throughput drug screen in 47 multiple myeloma cell lines against the NCATS MIPE library collection: KMS34_JCRB cell viability assay (AID 1918985); further: potency means the concentration at half of the fitted maximal effect; nearly all actives have a fitted effect of over 40% in size
Outline: as §4

[27] = Quantitative High-Throughput drug screen in 47 multiple myeloma cell lines against the NCATS MIPE library collection: OCIMY5_PLB cell viability assay (AID 1918988); further: potency means the concentration at half of the fitted maximal effect; nearly all actives have a fitted effect of over 65% in size
Outline: as §4

[28] = Quantitative High-Throughput drug screen in 47 multiple myeloma cell lines against the NCATS MIPE library collection: OPM1_PLB cell viability assay (AID 1918989); further: potency means the concentration at half of the fitted maximal effect; nearly all actives have a fitted effect of over 40% in size
Outline: as §4

[29] = Quantitative High-Throughput drug screen in 47 multiple myeloma cell lines against the NCATS MIPE library collection: SKMM1_PLB cell viability assay (AID 1919863); settings: SKMM1 myeloma viability, CellTiter-Glo ATP, 48 h; viability: hits give low values
Outline: as §4

[30] = Quantitative High-Throughput drug screen in 47 multiple myeloma cell lines against the NCATS MIPE library collection: XG1_PLB cell viability assay (AID 1919866)
Outline: as §4

[31] = Quantitative High-Throughput drug screen in 47 multiple myeloma cell lines against the NCATS MIPE library collection: UTMC2_PLB cell viability assay (AID 1919868); settings: CellTiter-Glo ATP luminescence, 48 h; series mostly up to 45.8 µM; further: nearly all actives have a fitted effect of over 55% in size
Outline: as §4

[32] = Quantitative High-Throughput drug screen in 47 multiple myeloma cell lines against the NCATS MIPE library collection: OPM2_DSMZ cell viability assay (AID 1919872)
Outline: as §1

[33] = Quantitative High-Throughput drug screen in 47 multiple myeloma cell lines against the NCATS MIPE library collection: KMS11_JCRBsus cell viability assay (AID 1919873); further: potency means the concentration at half of the fitted maximal effect; nearly all actives have a fitted effect of over 50% in size
Outline: as §4

[34] = qHTS for identification of novel therapeutic agents for treatment of microphthalmiaassociated transcription factor (MiT) renal cell carcinoma (RCC) (AID 1963991; calls by dose curve; further: potency means the concentration at half of the fitted maximal effect); settings: TFE3-RCC UOK109 viability, CellTiter-Glo, 48 h; active = Z-AUC below -0.8 in all three lines
Outline: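 Viability of three TFE3-fusion renal carcinoma lines measured by CellTiter-Glo after 48 h treatment with each of 1912 compounds at 11 concentrations. Responses scaled between DMSO (100%) and empty wells (0%) before curve fitting.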

Es-2 = assay: Primary qHTS to identify gynecologic anti-cancer compounds using libraries of approved drugs and bioactive compounds (AID 1345084); settings: Gynecologic cancer cell panel viability, ATPlite luminescence, 48 h; series mostly up to 57.5 µM; further: potency means the concentration at half of the fitted maximal effect; nearly all actives have a fitted effect of over 55% in size
Outline: (§5)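 Measured: luminescence after ATPlite addition (15 min, RT). Exposure: 48 h, 37 C, 5% CO2.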

Hek293T = assay: as above; settings: Gynecologic cancer cell panel viability, ATPlite luminescence, 48 h, control line for the selectivity index; series mostly up to 57.5 µM
Outline: as §5
Tags describe the fitted curve by direction and shape.

Compound: CC(C)OC(=O)C(C)(C)Oc1ccc(C(=O)c2ccc(Cl)cc2)cc1
- Potency [1]: inconclusive: 33.5 µM [inhibitor, single point]
- Potency [2]: inactive
- Potency [3]: inconclusive: 23.5 µM [cytotoxic, single point]
- Potency [4]: inconclusive: 66.2 µM [cytotoxic, partial curve, poor fit]
- Potency [5]: inactive
- Potency [6]: inconclusive: 37.2 µM [cytotoxic, single point]
- Potency [7]: inactive
- Potency [8]: inconclusive: 0.0526 µM [cytotoxic, full curve, poor fit]
- Potency [9]: inconclusive: 0.526 µM [cytotoxic, partial curve, poor fit]
- Potency [10]: inconclusive: 37.2 µM [cytotoxic, single point]
- Potency [11]: active: 16.6 µM
- Potency [12]: inconclusive: 26.4 µM [cytotoxic, single point]
- Potency [13]: inconclusive: 26.4 µM [cytotoxic, single point]
- Potency [14]: inconclusive: 0.264 µM [cytotoxic, full curve, poor fit]
- Potency [15]: inconclusive: 8.33 µM [cytotoxic, single point]
- Potency [16]: inconclusive: 26.4 µM [cytotoxic, single point]
- Potency [17]: inconclusive: 14.8 µM [rising, partial curve, poor fit]
- Potency [18]: active: 18.7 µM
- Potency [19]: inconclusive: 5.9 µM [cytotoxic, partial curve, poor fit]
- Potency [20]: inconclusive: 23.5 µM [cytotoxic, partial curve, poor fit]
- Potency [21]: inactive
- Potency [22]: inactive
- Potency [23]: inconclusive: 23.5 µM [cytotoxic, single point]
- Potency [24]: inconclusive: 29.6 µM [cytotoxic, single point]
- Potency [25]: inactive
- Potency [26]: inconclusive: 20.9 µM [cytotoxic, partial curve, poor fit]
- Potency [27]: inconclusive: 16.6 µM [cytotoxic, partial curve, poor fit]
- Potency [28]: inconclusive: 33.2 µM [cytotoxic, single point]
- Potency [29]: inconclusive: 0.132 µM [cytotoxic, full curve, poor fit]
- Potency [30]: inconclusive: 33.2 µM [cytotoxic, partial curve, poor fit]
- Potency [31]: inactive
- Potency [32]: inconclusive: 0.0012 µM [cytotoxic, full curve, poor fit]
- Potency [33]: inconclusive: 33.2 µM [cytotoxic, single point]
- Potency [34]: inconclusive: 20.9 µM [falling, partial curve, poor fit]
- Potency (Es-2): inconclusive: 39.8 µM [cytotoxic, partial curve, poor fit]
- Potency (Hek293T): inconclusive: 22.4 µM [cytotoxic, single point]
